Results from a compilation of properties of binary mixtures (doi:10.1016/j.jct.2020.106330).
Some of these densities may be calculated back from excess volumes.

Experiment: xn = mol fraction of the nth substance listed
Conditions: 101.3 kPa

CCCC[n+]1ccn(C)c1.F[P-](F)(F)(F)(F)F + CN1CCCC1=O
mass density [kg/m3]
Conditions | 303.15 K | 308.15 K | 313.15 K | 318.15 K | 323.15 K
x1 = 0.0513 | 1062.4 | 1058 | 1053.6 | – | 1044.8
x1 = 0.1028 | 1096.7 | 1092.3 | 1088 | 1083.6 | 1079.3
x1 = 0.1422 | 1119.8 | 1115.4 | 1111.1 | 1106.8 | 1102.5
x1 = 0.1894 | – | 1140.2 | 1135.9 | 1131.6 | 1127.3
x1 = 0.2988 | – | 1189 | 1184.7 | 1180.4 | 1176.1
x1 = 0.499 | 1260.6 | 1256.4 | 1252.2 | – | 1243.9
x1 = 0.591 | – | 1280.8 | 1276.6 | – | 1268.2
x1 = 0.6991 | – | – | 1301.8 | 1297.6 | –
x1 = 0.812 | 1332.4 | 1328.2 | 1324.1 | 1319.9 | 1315.8
x1 = 0.8415 | 1337.7 | 1333.5 | 1329.4 | 1325.2 | 1321.1
x1 = 0.8812 | 1344.7 | – | 1336.3 | 1332.2 | 1328.1
x1 = 0.9423 | 1355.2 | 1350.9 | – | 1342.6 | –
x1 = 1 | – | 1360.4 | 1356.2 | 1352.1 | 1348

CN1CCCC1=O + CCCC[n+]1ccn(C)c1.F[P-](F)(F)(F)(F)F
x2 = 0
Conditions | mass density [kg/m3]
308.15 K | 1018.2
313.15 K | 1013.7
318.15 K | 1009.3
323.15 K | 1004.8
